# About 14,000 (4.5%) of roughly 310,000 compounds showed an effect of 50% or more. The effect is printed as a negative number. The list shows a part of the results.
# Target: human ether-à-go-go-related gene (hERG) potassium channel (human, UniProt Q12809)
# Test: primary screen, population patch clamp on CHO cells stably expressing hERG
# Protocol: Briefly, Chinese hamster ovary (CHO) cells stably expressing the hERG channel were dislodged from tissue culture flasks and dispensed into PPC plates. […] During the recording, background leak currents were estimated by a 100 ms step to -80 mV from an initial holding potential of -70 mV and subtracted from the subsequent current measurement. The campaign was conducted in two phases using slight differences in recording protocol. In the first phase, the initial voltage pulse used a 100 ms step to -30 mV from a holding potential of -70 mV, a 2 s conditioning step to +25 mV, and a 2 s test step to -30 mV. During the second phase of the screen, the potential during the conditioning step was raised to +45 mV. In both phases of the campaign, a secondary voltage pulse was applied using the same parameters as the second phase initial pulse. The initial and secondary pulses were applied in the absence of compound, and upon application of 1 μM and 10 μM test concentrations. […]
# 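Note: peak tail current of the secondary pulse compared with the same well before compound.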
# human ether-à-go-go-related gene (hERG) potassium channel, sequence (Q12809 whole entry, looked up): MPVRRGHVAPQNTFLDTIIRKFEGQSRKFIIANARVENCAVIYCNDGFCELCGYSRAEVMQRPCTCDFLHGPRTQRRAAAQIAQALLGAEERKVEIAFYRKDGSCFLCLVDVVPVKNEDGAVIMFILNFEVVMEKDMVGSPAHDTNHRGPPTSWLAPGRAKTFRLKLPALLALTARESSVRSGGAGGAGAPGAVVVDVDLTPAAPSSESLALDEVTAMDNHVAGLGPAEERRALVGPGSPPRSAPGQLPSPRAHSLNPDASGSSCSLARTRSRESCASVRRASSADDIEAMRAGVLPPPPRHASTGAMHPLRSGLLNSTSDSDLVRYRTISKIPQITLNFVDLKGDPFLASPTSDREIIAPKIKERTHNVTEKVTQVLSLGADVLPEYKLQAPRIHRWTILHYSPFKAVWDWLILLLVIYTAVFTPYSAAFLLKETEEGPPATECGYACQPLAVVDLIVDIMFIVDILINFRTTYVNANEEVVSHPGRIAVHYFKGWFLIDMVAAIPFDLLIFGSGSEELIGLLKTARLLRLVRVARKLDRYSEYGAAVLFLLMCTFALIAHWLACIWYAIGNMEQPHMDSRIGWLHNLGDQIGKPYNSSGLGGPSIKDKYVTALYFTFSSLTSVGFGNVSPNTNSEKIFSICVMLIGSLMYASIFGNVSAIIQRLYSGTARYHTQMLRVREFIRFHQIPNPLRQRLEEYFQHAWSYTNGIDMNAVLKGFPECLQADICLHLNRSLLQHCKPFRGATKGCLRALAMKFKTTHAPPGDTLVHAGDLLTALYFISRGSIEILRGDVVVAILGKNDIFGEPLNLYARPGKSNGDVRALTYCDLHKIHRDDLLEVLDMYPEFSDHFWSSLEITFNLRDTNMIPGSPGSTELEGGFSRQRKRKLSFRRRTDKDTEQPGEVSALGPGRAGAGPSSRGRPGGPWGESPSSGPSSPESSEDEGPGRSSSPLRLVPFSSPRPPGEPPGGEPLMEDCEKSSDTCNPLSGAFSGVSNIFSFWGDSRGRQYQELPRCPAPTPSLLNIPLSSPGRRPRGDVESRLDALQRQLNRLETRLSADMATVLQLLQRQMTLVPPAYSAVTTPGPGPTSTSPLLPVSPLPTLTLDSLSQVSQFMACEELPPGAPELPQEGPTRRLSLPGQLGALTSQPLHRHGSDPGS
row,Compound,"hERG current change (%, negative = inhibition) at 10uM [%]"
1,CC1CCC(NC(=O)CCn2ccc3cc(S(=O)(=O)N4CCCC4)ccc32)CC1 (stereo not shown),-30.9
2,COC(=O)C(Cc1ccccc1)NC(=O)CC(C)CC(=O)Nc1ccc(OC)cc1OC (stereo not shown),-4.69
3,CC(Sc1nc(NC(C)(C)C)nc(N(C)C)n1)C(=O)Nc1ccccc1 (stereo not shown),10.9
4,COc1ccc(NC(C)=O)cc1S(=O)(=O)N(C)Cc1c(C)nn(-c2ccccc2)c1C,-13
5,Cc1ccc(C(=O)Nc2nc3ccccc3[nH]2)cc1,-5.03
6,O=C(NC1CCN(S(=O)(=O)c2ccc(F)cc2)CC1)c1cccc(F)c1,6.24
7,COc1ccc(NC(=S)NCC(c2cccnc2)N2CCOCC2)cc1 (stereo not shown),-11.3
8,CCN(CC)C(=O)n1cnc(-c2ccccc2)c1-c1ccccc1,2.37
9,CCC1=C(OC(=O)N(CC)CC)N2C(=O)OC(=NCC(=O)OC)[C@]2(C)[C@H]2C1=CC[C@H]1C(=O)N(C)C(=O)[C@H]12,-11.1
10,NC(=O)CC(NC(=O)Cc1ccc(Cl)cc1)c1ccc(NCCOc2ccccc2)c([N+](=O)[O-])c1 (stereo not shown),1.19
11,CCn1c(=O)n(CC(=O)NCC2CCCO2)c(=O)c2c3c(sc21)COC(C)(C)C3 (stereo not shown),12.8
12,CCc1ccc(OCCOCC(O)CNC2CCCC2)cc1.Cl (stereo not shown),0.432
13,Cc1ccc(C(O)Cn2cc([N+](=O)[O-])nc2C)cc1 (stereo not shown),2.9
14,O=C(Nc1ccccc1C(=O)N1CCOCC1)c1ccc([N+](=O)[O-])cc1,15
15,CC(C)NC(=O)CN1CCN(C(=O)CCl)CC1.Cl,16.2
16,COc1cc2c(c(OC)c1OC)-c1ccc(O)c(=O)cc1[C@@H](N)CC2,-11.8
17,O=C(O)C(=O)O.O=S(=O)(c1ccc(F)cc1)N1CCC(N2CCCCCC2)CC1,-26.3
18,CCOc1ccc(Br)cc1CSC(=N)N.Cl,-40.3
19,CCOc1cc(C)ccc1OCc1nnc(SCC(=O)c2cccc([N+](=O)[O-])c2)n1C,-26.4
20,COCCNC(=O)c1onc(CSc2ccc(F)cc2)c1C(=O)NCCOC,-4.82
21,Cc1cccc(C)c1NC(=O)CN(C)C(=O)c1cc(S(=O)(=O)N2CCOCC2)ccc1N1CCCC1,-3.99
22,O=C(N/C(=C/c1ccc(Cl)cc1)c1nc2ccccc2[nH]1)c1ccco1,9.34
23,CN(C(=O)COC(=O)c1ccc(Cl)cc1N)C1CCS(=O)(=O)C1 (stereo not shown),-16.2
24,Cc1ccc(S(=O)(=O)/N=C(/c2ccc(F)cc2)N(C)C)cc1,16.1
25,CC(C)(C)CC(=O)Nc1nnc(C(F)(F)F)s1,7.13
26,O=C(Nc1ccc(Cl)cc1)c1ccc(-n2cccn2)c([N+](=O)[O-])c1,4.78
27,O=C(CN1C(=O)COc2ccc(S(=O)(=O)N3CCCC3)cc21)Nc1cccc(F)c1,14.9
28,O=C(COC(=O)/C=C/c1ccco1)NCCc1ccccc1,-0.27

row,Compound,"hERG current change (%, negative = inhibition) at 10uM [%]"
1,Cc1ccc2oc(C(=O)Nc3ccc(S(=O)(=O)Nc4ncccn4)cc3)c(C)c2c1,14.9
2,CC(=O)c1cc(CN2CCC(N3CCC(C(=O)N4CCCC4)CC3)CC2)cs1,-2.23
3,CCCn1cc(S(=O)(=O)c2ccc(Cl)cc2)c(=O)c2cc(OC)ccc21,4.38
4,CCOc1ccc2[nH]c3c(NCCCOC)ncnc3c2c1,-10
5,COc1ccc(S(=O)(=O)N2CCCCCC2)cc1C(=O)NCc1cccs1,-68.3
6,CCCCN1C(=O)NC(c2cccc([N+](=O)[O-])c2)C(C(=O)OCC)=C1C (stereo not shown),-27.7
7,CCN(CC1CCCN(CCc2cccc(OC)c2)C1)C(=O)c1ccoc1C (stereo not shown),-62.8
8,COc1ccc(NC(=O)C2CCCN(S(=O)(=O)c3ccc4c(c3)oc(=O)n4C)C2)c(OC)c1 (stereo not shown),-17
9,NC(=O)CSc1ccc(S(=O)(=O)N2CCOCC2)cn1,10.2
10,CCCN(C(=O)c1ccc2c(SCC(=O)O)c3c(nc2c1)CCC3)c1cccc(C)c1,17.8
11,O=C1c2ccccc2C(=O)C1c1ccc(O)cc1,-6.49
12,Cc1cc(C)nc(NNS(=O)(=O)c2ccc(F)c(Cl)c2)n1,0.38
13,Nc1ccccc1C(=O)OCCc1ccccc1,14.2
14,CC1(C)Cc2cccc(OCC(=O)N3CCN(c4cccc(C(F)(F)F)c4)CC3)c2O1,1.57
15,CC(=O)NC(C)C(=O)OCC(=O)c1ccc(Cl)s1 (stereo not shown),5.1
16,COC(=O)c1c(NC(=O)CSc2ncnc3ccccc23)sc(C)c1C,2.81
17,O=C(O)CC(CN1C(=O)c2ccccc2C1=O)c1ccccc1 (stereo not shown),7.09
18,COc1ccccc1N1CCN(S(=O)(=O)c2ccc(Cl)cc2)CC1,6.61
19,COc1ccc(NC(=O)c2cccnc2NCCc2ccccc2)cc1,8.11
20,O=C(c1ccccc1)N1CCN(C(=O)c2ccccc2)CC1,1.49
21,COc1ccc(NC(c2ccccc2F)P(=O)(Oc2ccccc2)Oc2ccccc2)cc1 (stereo not shown),7.48
22,COc1ccc(C2CC(=O)Oc3c(C(CCN4CCCCC4)c4ccc(N(C)C)cc4)c(OC)cc(OC)c32)cc1 (stereo not shown),-16
23,COC(=O)Cc1c(C)nc2nc(-c3ccc(C)cc3)[nH]n2c1=O,12.8
24,CC(=O)c1sc(N2CCOCC2)nc1-c1ccccc1,-6.27
25,CC(=O)N(OCc1ccc(OC(C)C)c(Cl)c1)C(C)=O,18.4
26,NC(=O)COc1ccc(NC(=O)c2ccccc2-c2ccccc2)cc1,-9.89
27,Cc1ccc(Nc2nc3ccc(Cl)cc3n3cnnc23)cc1F,14.3
